Assay results: the supplement of paper PMC11417369
± gives the standard deviation of the averaged measurements. This is one part of the list.

Each sequence was assayed on PfAP2-LT AP2 domain (GST-tagged) (assay: gcPBM binding intensity (ln(normalized median fluorescence intensity)); higher = stronger DNA binding).
Outline: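 Binding intensity is defined as the maximum Masliner-normalised natural-log median intensity across replicate spots for either probe orientation. It was measured on an Agilent 4 × 180k array of primer-extended double-stranded 36-bp intergenic genomic probes and negative controls, to which GST-tagged P. falciparum DNA-binding domains made in E. coli were applied for 1 h in 1× PBS with 1% milk, 0.2 mg/ml BSA, 0.5% salmon testes DNA and 0.03% Triton X-100. Detection was by Alexa488 anti-GST antibody and scanning at 488 nm.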

Row | Sequence | gcPBM binding intensity (ln)
1 | AAAAAAAAAAAAAAAAAAAAAAAAAAAAATAAAAAA [CACACA_negctrl_site59] | 8.44 ± 0.17
2 | AAAATATTTAATAGAAGTACACATGTATATATACAT [XGTACX_site8942] | 8.84 ± 0.41
3 | TATATTAACAAAATGGTGCAATAATTTCTATATTGT [GTGCAC_site9430] | 8.54 ± 0.38
4 | TGTGTAAGCACATACAAACACACAACCTTATTTTTA [CACACA_site2187] | 8.97 ± 0.34
5 | TTATTATATTAAAAGAGGACACATTTATTTTTTTTT [XGTACX_site1241] | 8.3 ± 0.47
6 | ATATATATATATATTTGTACTTAATTGATTTTACTT [XGTACX_site2663] | 9.42 ± 0.4
7 | ATGCGTTTAGCAAAAAGTACATATATATATAATATT [XGTACX_site1928] | 8.9 ± 0.43
8 | ATTATTGATTTATAAACACACACTCGAAGATGTTTA [CACACA_site8294] | 8.88 ± 0.4
9 | ATTTTTTCTAGACATGCATGTGAAATTTACTTTTTT [TGCATGCA_site305] | 8.84 ± 0.39
10 | TTGAAATACTTTATTTGTACATATAGCAAAGTGTAT [XGTACX_site8782] | 8.57 ± 0.38
11 | CTTTCTCTCAAAATGACATGCAATTTGTTTCTTTTT [TGCATGCA_site169] | 8.71 ± 0.67
12 | AAAAAAATATATAATAGTACATATATAGGAATATAT [XGTACX_site4591] | 8.87 ± 0.52
13 | TGAATACAGATATTCACACAAATAGTTTTGATATAT [CACACA_site5527] | 8.66 ± 0.45
14 | TAATATCTTGAGTCATCACACATTGATTAATGAATC [CACACA_site5735] | 8.62 ± 0.42
15 | CTTTTTTTTTTTTTTGCACACACATATATAAATATA [CACACA_site3950] | 9.38 ± 0.34
16 | AGTGGAAATTTTATTTGTACATAAATATTTACATAC [XGTACX_site633] | 8.64 ± 0.34
17 | TTTTTTTTTTTTTTTACACACTTTATTCAAACAACT [CACACA_site4104] | 8.72 ± 0.47
18 | ATTTTTTTTTAATGCAATATATTTTGAAAATTTTAT [CACACA_negctrl_site753] | 8.38 ± 0.49
19 | ATTGATACATCCAATACACACTACATATTATGATGT [CACACA_site6965] | 9.11 ± 0.47

Row | Sequence | gcPBM binding intensity (ln)
20 | TTGGCATACAGACACACACACACACCCCCACATATA [CACACA_site590] | 10.09 ± 0.085
21 | AATTTATTAAAAAAATGTACTTATTTTTTTGTATAA [XGTACX_site5844] | 8.34 ± 0.49
22 | TTTTTTTTTTTTTTTTTTTTTTTTTCATATTAATAT [GTGCAC_negctrl_site351] | 8.36 ± 0.39
23 | AATATGGAATGAAATAACAATCGGGAGTATATTACC [CACACA_negctrl_site93] | 8.91 ± 0.49
24 | TATATATATGTTCTTACACACACGAATATATATATG [CACACA_site3304] | 9.23 ± 0.28
25 | ACATATTGTAGATATTGTACATATTGTGTATATATT [XGTACX_site7620] | 8.98 ± 0.45
26 | TTGAATAAATTGGAATAAATATAATAAAATAAGGAA [XGTACX_negctrl_site302] | 8.67 ± 0.47
27 | TACCAATAAATGAAGGTGCGTGCTTGCCTTTGCTAT | 8.95 ± 0.31
28 | CATACATATATTATTGCACACATATAAAATACCCCC [CACACA_site9292] | 9.7 ± 0.15
29 | TAGGAATTTAATAAATGTACATATACATAATATATA [XGTACX_site3672] | 8.61 ± 0.49
30 | TTGTATAGTCTGATATGTACATATATATATATATAA [XGTACX_site4307] | 9 ± 0.35
31 | TATAAAAAATTAAAATTTTTCTTATTTTTTTTAGAT [TGCATGCA_negctrl_site125] | 7.98 ± 0.49
32 | ACCACCAGGAACAAAGCACATTAGGAAAAATAAAAC [XGTACX_negctrl_site228] | 8.95 ± 0.48
33 | TGGATACACAAAAATTAAAAAAATAAACAAACAAAT [GTGCAC_negctrl_site105] | 8.92 ± 0.49
34 | TACTTTTATATGAATACACACAGGAATATAAATATG [CACACA_site7647] | 8.78 ± 0.36
35 | AAAAAATAGTGGTATGCATGTCCCTTGTATTTTCTT [TGCATGCA_site587] | 8.96 ± 0.45
36 | TCCTTACATTTTAAAACACACAAAAATTAATTGTTA [CACACA_site2313] | 8.47 ± 0.4
37 | AAAATACCCATTTTAGTACACACTTAAAAAATTATT [CACACA_site8966] | 8.77 ± 0.41
38 | AGACCTATGATATATACACACATATATTTATTTATA [CACACA_site6630] | 8.99 ± 0.45

Row | Sequence | gcPBM binding intensity (ln)
39 | ATTATAACACTTATTTCATTTGTATGCCCTTTAAAA [CACACA_negctrl_site955] | 8.66 ± 0.52
40 | TATATAACTAAAATAACACACATATATAAAAATATA [CACACA_site7416] | 8.84 ± 0.42
41 | TATAAATATTTTATTGTACACACTTTTTATGAATGA [CACACA_site3136] | 8.76 ± 0.47
42 | TAATATTTCATTAGGTGTACACTACATAGTAGTAGA [XGTACX_site366] | 8.55 ± 0.35
43 | GTTTGTTTGTTTGTTCGTACATATATAAAATAAAAA [XGTACX_site4731] | 8.45 ± 0.35
44 | TTTTTTAAAATATGGACACACATATATATATCTGTA [CACACA_site5535] | 8.88 ± 0.38
45 | TATGCAATATATTATATTCTGTAAATATTATATATT [TGCATGCA_negctrl_site67] | 8.41 ± 0.38
46 | ATAATCAACATTAGGTGTACAAAATATGTATGTTTT [XGTACX_site6696] | 8.95 ± 0.47
47 | TATATATTTTTTAATTGTACACTTCAAAAACAAAAA [XGTACX_site5595] | 8.18 ± 0.42
48 | GTAGTTATATTAAGGGTGCTTAATTAGATTAAACAA | 8.53 ± 0.47
49 | TTCAAATTTCCACATACACACCTTGTAGATATATAT [CACACA_site7984] | 8.95 ± 0.49
50 | AGAATAAATAAATATTGTACATATAAAATATATATA [XGTACX_site896] | 8.71 ± 0.48
51 | ATTGAACACATCTATGCATGCACGGAAAAAAGTACA [TGCATGCA_site401] | 9.24 ± 0.35
52 | AAAAACTTAATATTGACACACATTTTTAAGAATAAT [CACACA_site4291] | 8.67 ± 0.41
53 | AATGTCAGTATGCGAGGTACACGTATAAAAATTACA [XGTACX_site4109] | 8.95 ± 0.56
54 | TATTATAATAAACCTATACACACATAAATAAATAAA [GTGCAC_negctrl_site627] | 8.92 ± 0.44
55 | AGGAAATTTGTTATTGCACACAAATTTTTCTTTTTT [CACACA_site8732] | 8.85 ± 0.38
56 | TTTTACTAAATATATACACACATTATACAGATATAT [CACACA_site5765] | 8.94 ± 0.44
